Read counts are not given, so values of variants with three or more changes are uncertain.

B1: LINE1-mini (parent)
chain: GGCAGAGCUCAACACAGCGUGGCAAAGUGGCUGUGGCUAGACUGCC

The variants in the data set derive from B1. Kind of data set: self-cleavage, relative activity (ratio to wild type); higher = more cleavage; in vitro, sequencing; the parent is a self-cleaving ribozyme.
For A14U G35A U38C, the self-cleavage came out at 0.
Take C15A G17C G29C: the self-cleavage was 0.05.
Next, C15A A24G U32C U38C C46G: 0.06; A14U A16C C45G: 0.15.
Next, C15A A24U C37U: 0.03.
Next, A14G G22C U28A: 0.01; A14U G19U A41U: 0.08.
Take A14U U32G A39G: the self-cleavage was 0.04.
The result for A14G G19U G35U U38C reads 0.23; that for C15A A25C G27U G36A G44C, 0.03; that for A14U U20A C37U, 0.01.
Regarding A14G G29C U32A G33U, the self-cleavage worked out at 0.01.
The result for A14G G30A C31G reads 0.02; that for A14U G22U A25G G35A A41G, 0.02.
Next, C15A A24U U28A G36C: 0.
Next, A14G G30U C31G C46G: 0.01; A14G G35A C45A C46G: 0.05; A14G G33C G40U: 0.02.
On to C15A A24G G29C, for which the self-cleavage turned out to be 0.36.
The result for A14U A16C C31A C37G C42G reads 0.01.
The result for A14U C15A G19A reads 0.09.
Next, A14U C18G G30C C45U: 0.43.
For A14U A16C G17U, the self-cleavage stood at 0.07.
The result for A14U G33U U43A reads 0.03; that for C15A G17U G19U G33U G40C C42U, 0.06; that for A14U C18A U28A, 0.01.
The result for A14U C18A C37U reads 0.05.
Next, A14G G35U G44A: 0.03; A14U C15U G36U: 0.07.
Regarding A14G G22A G29C, the self-cleavage came to 0.12.
With A14U C18G G36C C42A, the self-cleavage was 0.01.
In the case of A14G U28C U43A, the self-cleavage amounted to 0.08.
Next, C15A G17C G27A: 0.06; C15A G17A G21C C46A: 0.03.
Next, A14G G21C A25U: 1.25.
The result for C15A A25G C45G C46A reads 0.02; that for A14G C23U U28C, 0.56.
A14U G17U G19U C23A G33U C46G: the self-cleavage stood at 0.02.
The result for A14U C18U U20A G22C A25U G33C C45U reads 0.03.
The result for C15A A24G G30A reads 0.05.
In the case of A14G G21U A24U, the self-cleavage is 0.26.
The result for A14U A16C G19U reads 0.03.
The result for A14U G36C G40U C42U reads 0.07; that for A14U C18U G21U C46A, 0.08.
The result for A14U A41C C46A reads 0.06; that for A14U G19C A25U, 0.09.
For the variant A14U G17A G40A, the self-cleavage is 0.03.
The result for C15A G17A G27C C31A U38A C42A G44A reads 0; that for A14G C23A G33C U34G, 0; that for A14U G40U G44U, 0.04.
Next, C15A A39U A41G U43C: 0.02; A14U G17A U34A C46A: 0.1.
C15A A24C U28G C31U: the self-cleavage amounted to 0.01.
The result for A14G G17A G19U reads 0.02.
Next, A14U G29U U32A G40U: 0.01.
Next, C15A A16C C31U C37G: 0; A14U C31U C42A C46A: 0.01; A14G G19C G29A C46U: 0.07.
On to A14G C37U C42U G44A, for which the self-cleavage came out at 0.12.
Regarding A14G G19U G44C, the self-cleavage was 0.12.
Next, C15A C23A A25G: 0.1.
Turning to C15A G17A G22C U28A, the self-cleavage turned out to be 0.03.
The result for A14G G19U G22A reads 0.25; that for A14U G22A G35A G36A, 0.01; that for C15A C31A C37G A39C, 0.02.
The result for A14U C18U G36A reads 0.14; that for A14U U32C G36U, 0.03.
The result for C15A A41G C42G reads 0.06; that for A14U G17C G35A, 0.06.
Consider C15A A25C G35C, for which the self-cleavage is 0.04.
Take A14G U20C G21U: the self-cleavage was 0.28.
The result for A14G G22U G27C reads 0.31; that for A14G G30A A41U, 0.3.
Consider A14U C15U G22C, for which the self-cleavage is 0.03.
As for A14U G19A G22A, the self-cleavage stood at 0.71.
The result for A14U A16C G22A reads 0.05; that for A14U A16U C18U G35U C37A, 0.02.
A14G G35A A41C: the self-cleavage was found to be 0.01.
Next, C15A C37A U38C: 0.03.
The result for A14G U20A G30U C42U reads 0.04; that for A14U C18G U43G, 0.04.
Next, A14G G19C G21U C46U: 0.12; A14G C18U U34G: 0.25; A14G U20A G21U G27A U34A C42G: 0.06.
As for A14U C42U G44A, the self-cleavage is 0.09.
Consider A14G G29U C37U A39U, for which the self-cleavage is 0.03.
Next, A14G C23U A25C: 0.59; A14U G19U G36C: 0.05.
For A14U G35U U38A A39U, the self-cleavage came to 0.12.
The result for C15A C18A G21A reads 0.03.
As to A14U U20C G22U A24U G27C U28G G33U G35U, the self-cleavage was found to be 0.01.
Next, A14G G21C G22A G40C: 0.05; A14U C15U A26G U43A: 0.07; A14U G22C U28C A39U: 0.04.
The result for C15A C18A C31A G36A C37G C46G reads 0.01.
Next, C15A A26C G36A A39U: 0.04; C15A A24C U32G: 0.01.
Turning to A14G G17U C18A U34A, the self-cleavage came to 0.02.
A14U G21A G22U U43A: the self-cleavage turned out to be 0.27.
Next, A14G G35A G36C: 0.01.
The result for A14U A26U C37G reads 0.03; that for A14G G19A U38A, 0.24.
The result for A14U U34G C37A C46G reads 0; that for A14G C23A C45U, 0.74.
On to A14G G33C U43A, for which the self-cleavage was 0.03.
The result for A14G U28A C42G reads 0.06; that for A14U A26U G30A C31G, 0.51.
Next, A14U G17C U34G C37A C45A: 0.09; C15A A24C U34G U38C: 0.02; A14G U20G G36C: 0.02.
The result for A14U A26C U34G reads 1.25; that for A14G G21U C23U, 0.69.
On to C15A G17C C18G A24U A25U, for which the self-cleavage turned out to be 0.01.
Regarding C15A G17U C18G G22C C31A, the self-cleavage stood at 0.03.
With A14U A16G C18U G19A C23U G33U A39C, the self-cleavage is 0.02.
The result for C15A A24U U28C C37G reads 0.07; that for A14U G27U C46U, 0.04.
The result for C15A A26C C31A G35C C37A reads 0.16; that for C15A G17C C18A, 0.02.
The result for A14U U20C C37U A39G A41G reads 0.01; that for A14U A25C C31U U32A A41C, 0.02; that for C15A C18U U20C G29U U34C, 0.02.
Consider A14U G19U G35U, for which the self-cleavage was 0.03.
As to A14U G33C U34A G44C, the self-cleavage was determined as 0.05.
Next, C15A A16U C18G A24G A26U: 0.03.
The result for C15A C31U U34A G40A C42U reads 0.01.
Next, C15A C23G A24G C45A: 0.01.
A14G G30A C45G: the self-cleavage was determined as 0.23.
Next, A14U G19A U20G: 0.05; A14U A16U G22A C42A: 0.04; C15A C23A G33C: 0.05.
The result for C15A G17C G27U G29C reads 0.43.
Next, A14U G35U C37G G44C: 0.03; A14U G19U C42U: 0.15; A14U G19C U34C C37U: 0.01.
As for A14U C18U G27C, the self-cleavage worked out at 0.13.
Next, C15A A25G G27A: 0.12; C15A G17U A24G: 0.16.
The result for A14G G19A A39U A41U U43G reads 0.15; that for A14G G19C G21U C31U C45A, 0.11.
As to A14U G19C C23A U28C C31U, the self-cleavage is 0.05.
Take A14G G19U U43G: the self-cleavage stood at 0.12.
The result for A14G U20A C31A U38C reads 0.01; that for A14G G19A U32C C37G, 0; that for A14U G36A A41G, 0.17.
The result for A14G C23A A24U reads 0.34.
The result for C15A C18G A41U reads 0.01.
On to C15A A16C G19U, for which the self-cleavage was found to be 0.05.
Next, A14U A26U G27U: 0.03; C15A A16C G19C A25G G30U: 0.02.
In the case of A14U A16C A24U U28C, the self-cleavage is 0.13.
Next, A14U C18U C23G G33U A41U: 0.11; C15A A24G A25U G36U G40U: 0.09; A14U C31A U38A: 0.08.
The result for C15A G17C U38C reads 0.08.
Take A14G U32G G33A G44C: the self-cleavage was 0.03.
Next, A14G C18U G22A C37U: 0.07; A14U C18A U32G G40U U43G: 0.01; A14U C15U G17A G33A: 0.01.
Next, C15A C18U C31U: 0; C15A G17C U20A A39U: 0.
The result for A14G G19U G33A U43C reads 0.03; that for C15A A16U A25G G35A C37G, 0.27.
In the case of A14G G17A C42A, the self-cleavage turned out to be 0.12.
The result for A14U U28A G29U G30A reads 0.41.
Next, A14U G21A G35U C45G: 0.05; A14U C23G A24G U28G C46A: 0.07.

Values taken from the RNAGym collection of RNA variant scans (doi:10.7554/elife.90254).
